Test results: PubChem BioAssay AID1745853 (National Center for Advancing Translational Sciences (NCATS), 2022)
Values joined by “and” are separate entries in the source; they are usually repeats but may differ in a detail not shown here. Identical values can stand only once. This is one part of the list. The main result of the screen is listed elsewhere. These columns were measured beside it and carry no call.

Legend:
Assay in all cases: Primary Screen for Target Class Profiling of Small Molecule Inhibitors of Methyltransferases
[1] = biological target: Glycine N-methyltransferase (Homo sapiens) (UniProt Q14749); settings: purified enzyme, MTase-Glo SAH luminescence; measured here: GNMT inhibition; at 40 µM; stronger effect = lower value
Method in brief: (§1)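 Each enzyme was assayed with SAM and its substrate. SAH formation detected by MTase-Glo luminescence; single-point 40 uM screen[…].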

[2] = biological target: Guanidinoacetate N-methyltransferase (Homo sapiens) (UniProt Q14353); settings: purified enzyme, MTase-Glo SAH luminescence; measured here: GAMT inhibition; at 40 µM; stronger effect = lower value
Method in brief: as §1

[3] = biological target: Histamine N-methyltransferase (Homo sapiens) (UniProt P50135); settings: purified enzyme, MTase-Glo SAH luminescence; measured here: HNMT inhibition; at 40 µM; stronger effect = lower value
Method in brief: as §1

[4] = biological target: Nicotinamide N-methyltransferase (Homo sapiens) (UniProt P40261); settings: purified enzyme, MTase-Glo SAH luminescence; measured here: NNMT inhibition; at 40 µM; stronger effect = lower value
Method in brief: as §1

[5] = biological target: Phenylethanolamine N-methyltransferase (Homo sapiens) (UniProt P11086); settings: purified enzyme, MTase-Glo SAH luminescence; measured here: PNMT inhibition; at 40 µM; stronger effect = lower value
Method in brief: as §1
% is set by controls: 0 for no effect and ±100 for the full control effect.

| SMILES | activity change, negative = inhibition [1] [%] | activity change, negative = inhibition [2] | activity change, negative = inhibition [3] [%] | activity change, negative = inhibition [4] | activity change, negative = inhibition [5] |
| --- | --- | --- | --- | --- | --- |
| CCOC(=O)c1ccc(OCCN2C[C@H](O)[C@@H](O)[C@H](O)[C@H]2CO)cc1 | 2.43 | -2.84% | 10.8 | -7.38% | 4.23% |
| O=C1NC(=O)C(c2cnc3ccccn23)=C1c1cn2c3c(cccc13)CN(C(=O)N1CCOCC1)CC2 | -26.6 | 8.95% | -17.9 | -17.9% | -10.9% |
| Cc1cc(C)cc(NC(=O)CCc2nnc3n(CC(C)C)c(=O)c4ccccc4n23)c1 | 0.991 | -0.329% | 9.45 | 7.27% | -1.97% |
| COc1nccc(N2CCC(CC(=O)N3CCN(C(C)=O)CC3)CC2)n1 | -3.12 | -5.69% | -5.84 | -6.75% | -4.78% |
| O=C(O)CCC1CCCN(S(=O)(=O)c2ccc(F)cc2)C1 (stereo unspecified) | -2.23 | -7.75% | -1.99 | -3.54% | -2.04% |
| CC(C)N1C[C@H](O)C[C@H]1c1nnc2n1CCN(C(=O)c1ccco1)CC2 | 0.194 | -1.39% | 0.557 | 0.441% | 4.05% |
| COc1ccc(CNC(=O)Nc2ncc([N+](=O)[O-])s2)cc1 | 0.462 | 0.609% | 6.07 | -10.9% | 2.54% |
| COCCCNC(=O)c1cc2n(n1)CC(C)(C(=O)NCc1ccc(C)cc1)N(C)C2=O (stereo unspecified) | -0.1 | 0% | 0.043 | -0.415% | 3.34% |
| CC(=O)OC(C)(C)/C=C/C(=O)[C@](C)(O)C1[C@H](O)C[C@@]2(C)[C@@H]3CC=C4[C@@H](C[C@H](O[C@@H]5O[C@H](CO)[C@@H](O)[C@H](O)[C@H]5O)C(=O)C4(C)C)[C@]3(C)C(=O)C[C@]12C (stereo partly specified) | 0.991 | -0.82% | 3.26 | -11.1% | 4.86% |
| COCCNc1nc2c(S(=O)(=O)c3ccc(C(C)C)cc3)nnn2c2ccccc12 | -4.02 | -0.804% | -2.93 | -15.7% | -5.91% |
| O=C(O)c1ccc2c3c1cccc3c(=O)n1c3ccccc3nc21 | – | -8.28% | – | -21.9% | -8.86% |
| Cn1c2ccccc2c2c3c(c4c5ccccc5n(CCC#N)c4c21)CNC3=O | 2.33 | -12.5% | 9.98 | -43.8% | -13.7% |
| CCCn1c(=O)c2ccc(C(=O)NC3CCCCC3)cc2n2c(SCc3cccc(OC)c3)nnc12 | 6.06 | 0% | 9.38 | 0.528% | 1.97% |
| CCc1ccc(C(=O)Nc2cc(CN3CCN(C)CC3)cc(C(F)(F)F)c2)cc1C#Cc1cnc2ccnn2c1 | 5.03 | 12.4% | -12.8 | -2.89% | 6.77% |
| O=C(NC1CCCCC1)c1ccc2c(=O)nc3c(-c4ccccc4F)n[nH]n3c2c1 | -24 | 2.75% | -2.46 | -0.986% | -3.45% |
| C=C1CC23CCC4[C@@](C)(CCC[C@@]4(C)C(=O)O)C2CCC1C3 (stereo partly specified) | -4.8 | -10.1% | 3.42 | -21.6% | -12.2% |
| Nc1ncnc2c1ncn2CCNCCCCCO | 3.8 | 9.94% | 4.44 | -7.01% | 0.982% |
| CCS(=O)(=O)N(Cc1cccnc1)c1cccc(-c2ccc(C#N)cc2)c1 | 4.13 | 1.65% | 2.7 | -18.7% | -7.38% |
| CCS(=O)c1nc(-c2cccc(OCc3ccccc3)c2)cc(C(F)(F)F)n1 (stereo unspecified) | -7.79 | -2.34% | 0.03 | -27.7% | -11.1% |
| CSc1ccc(CN2C(=O)c3ccc(-c4ccco4)n3CC2(C)C(=O)NC2CCCCC2)cc1 (stereo unspecified) | -2.97 | 0.455% | -0.167 | -0.112% | 1.45% |

| SMILES | activity change, negative = inhibition [1] [%] | activity change, negative = inhibition [2] | activity change, negative = inhibition [3] [%] | activity change, negative = inhibition [4] | activity change, negative = inhibition [5] |
| --- | --- | --- | --- | --- | --- |
| COc1ccc(-c2cn(C)c(=O)n3cc(CN4CCNC(=O)C4)nc23)cn1 | -7.43 | -10.4% | -4.38 | -15% | -9.12% |
| COCCC1(NC(=O)c2ccccc2)CCN(Cc2ccc(F)cc2F)CC1 | -1.21 | -0.337% | 1.5 | -1.12% | 3.52% |
| CCCN1C(=O)c2cc(C(=O)NCc3ccccc3OC)nn2CC1(C)C(=O)NC1CCCC1 (stereo unspecified) | -2.05 | 2.42% | -4.03 | -2.62% | -1.46% |
| Cc1cc(C)n(CCC(=O)N2CCC(Cc3noc(C4CC4)n3)C2)n1 (stereo unspecified) | -1.61 | -6.15% | -1.08 | -7.31% | -2.12% |
| COC(=O)c1ncn2c1C(=O)N(Cc1ccc(SC)cc1)C(C)(C(=O)NCc1ccccc1)C2 (stereo unspecified) | -0.276 | 3.19% | 1.56 | 1.95% | -0.455% |
| Cc1cccc(CN2CC(=O)N(Cc3ccc(Cl)cc3)c3ccccc3S2(=O)=O)c1 | 2.56 | 3.91% | -2.97 | -2.85% | -5.14% |
| CCOc1ccc(CN2C(=O)c3cc4ccccc4n3CC2(C)C(=O)NCCCOC(C)C)cc1 (stereo unspecified) | 2.1 | 8.55% | 2.97 | -1.6% | 0.369% |
| O=C(NCCc1ccccc1)c1ccc(CN2C(=O)CCn3nc(-c4cccc(Cl)c4)cc32)cc1 | 4.66 | 0% | 11.1 | -0.085% | 2.78% |
| O=C(O)C[C@@H](NC(=O)c1cc(-c2ccc(-c3ccncc3)cc2)cs1)c1ccccc1 | -41.1 | -9.54% | -15.7 | -29.3% | -15.4% |
| COc1ccc(C(=O)N2CCCCCNC(=O)[C@@H]3CCC[C@@H]32)cn1 | -4.05 | -7.8% | -2.45 | -13.7% | 8.14% |
| Cc1cc(C)c(S(=O)(=O)NCCn2c(C)cnc2C2CCC2)cc1C | -3.58 | 0.564% | -3.82 | -8.44% | -0.713% |
| COc1cccc([C@H]2Nc3ccc(S(=O)(=O)Nc4ccccc4F)cc3C3C=CCC32)c1OC (stereo partly specified) | -20 | -7% | -15.5 | -15.9% | -18.1% |
| CCCC1c2ccc(C)n2CCN1C(=O)Nc1cccc(Cl)c1 (stereo unspecified) | 1.07 | 0.328% | -5.19 | 4.8% | -2.76% |
| CC(=O)O[C@@]12CO[C@@H]1C[C@H](O)[C@@]1(C)C(=O)[C@H](O)C3=C(C)[C@@H](OC(=O)C(O)[C@@H](NC(=O)OC(C)(C)C)c4ccccc4)C[C@@](O)([C@@H](OC(=O)c4ccccc4)[C@H]21)C3(C)C (stereo partly specified) | – | 2.21% and 16.4% | – | -7.91% and -0.064% | 4.1% and 0.096% |
| CSc1cccc(NC(=O)N2CCn3cccc3C2Cc2ccccc2)c1 (stereo unspecified) | -2.08 | 3.54% | -3.04 | -6.76% | -6.51% |
| COc1ccc(F)c(-c2nc(CN(C)CC3(CO)CC3)c(C)o2)c1 | -2.08 | -0.422% | -3.46 | -5.82% | -0.894% |
| CC1CCC(NC(=O)C2(C)Cn3c(ccc3-c3ccccc3)C(=O)N2Cc2cccs2)CC1 (stereo unspecified) | 5.86 | 0% | 3.17 | -7% | -1.92% |
| O=C(Cc1cccc(C(F)(F)F)c1)N[C@H]1CCOC[C@H]1C1CCOCC1 | -2.61 | 0.048% | -1.53 | -4.11% | -3.97% |
| CC(C)(Cc1nc(-c2ccc(O)cn2)no1)C(=O)NC1=C(C(=O)O)CCCC1 | -2.86 | -7.31% | -6.2 | -18.3% | -13.6% |
| O=C(CCc1nnc2n(Cc3ccccc3)c(=O)c3ccccc3n12)NCCN1CCOCC1 | -4.87 | 0% | 7.41 | 11% | 3.25% |

| SMILES | activity change, negative = inhibition [1] [%] | activity change, negative = inhibition [2] | activity change, negative = inhibition [3] [%] | activity change, negative = inhibition [4] | activity change, negative = inhibition [5] |
| --- | --- | --- | --- | --- | --- |
| C[C@@H]1CC[C@H]2C(C)(C)[C@H](O)[C@H](O)C[C@]2(C)[C@@]12Cc1c(O)cc3c(c1O2)CNC3=O | 5.38 | 7% | 7.86 | -6.75% | 1.64% |
| C/C=C(\C)C(=O)OCC1OC(OC2OC(COC(=O)/C(C)=C/C)C(OC3OC(CO)C(OC(=O)/C(C)=C/C)C(OC(=O)/C(C)=C/C)C3O)C(O)C2O)C(O)C(O)C1OC1OC(CO)C(OC(=O)/C(C)=C/C)C(OC(=O)/C(C)=C/C)C1O (stereo unspecified) | -4.1 | 2.42% | 0.526 | -7.24% | 4.28% |
| Cc1ccc(NC(=O)Cn2nc3n(CCC(C)C)c(=O)c4ccccc4n3c2=O)cc1C | 2.46 | 0% | 9.48 | 4.86% | 3.31% |
| Cc1ccc2n1CCN(C(=O)NCCc1ccccc1)C2C(C)C (stereo unspecified) | -4.75 | 1.78% | -17 | -11.7% | -11.3% |
| Cc1ccc(C)c(Cn2nc3n(CCC(C)C)c(=O)c4ccccc4n3c2=O)c1 | 2.8 | 3.92% | 5.29 | 0.246% | 0.748% |
| Cc1ccc(C(=O)O)c2c1N[C@H](c1cccc(Cl)c1)C1CC=CC21 (stereo partly specified) | -53.3 | 0.697% | -3.88 | -9.66% | -1.92% |
| OC[C@H]1CCN(c2ccnc3c(C(F)(F)F)cccc23)C[C@H]1O | 0.345 | -1.21% | 0.673 | -2.38% | 4.17% |
| COc1ccc(CNc2nc3c(-c4ccc(Cl)cc4)nnn3c3ccccc23)cc1 | -2.06 | 2.7% | 1.91 | -1.26% | -1.49% |
| CN(C)[C@@H]1CN(C(=O)c2cc3ccccc3[nH]2)CC[C@@H]1CO | -0.279 | 6.01% | 1.33 | 1.18% | -7.3% |
| Cc1cc(F)ccc1NS(=O)(=O)c1ccc2[nH]c(=O)[nH]c2c1 | 2.24 | 0% | 4.36 | -2.94% | -6.61% |
| O=C(NS(=O)(=O)c1ccc(Br)s1)c1ccc(Cl)cc1Cl | -4.7 | -5.7% | 2.54 | -19.3% | -8.07% |
| CCCn1c(=O)c2ccc(C(=O)NC3CCCCC3)cc2n2c(=O)n(Cc3cccc(Cl)c3)nc12 | 4.82 | 0% | 7.46 | 3.32% | 5.95% |
| CN(C/C=C/c1ccccc1)C(=O)C1CCC(=O)N(Cc2cccc(F)c2)C1 (stereo unspecified) | -0.539 | -0.094% | 1.76 | -1.09% | 0.345% |
| C=C(C)C(=O)O[C@H]1/C(C=O)=C\CC/C(CO)=C/[C@H]2OC(=O)C(=C)[C@@H]2[C@@H]1OC | 0 | -12.9% | 0.631 | -24.5% | -1.34% |
| COc1ccccc1CNC(=O)Cn1c(=O)oc2cc(S(=O)(=O)NCc3ccccc3)ccc21 | 12.9 | 1.63% | 11.3 | 1.53% | 10.8% |
| CC(C)c1ccc2c(c1)[C@H](O)CC1[C@@](C)(C(=O)O)CCC[C@]21C (stereo partly specified) | -4.38 | 4.79% | 5.82 | -6.58% | -1.83% |
| CC1=CC(=O)CC(C)(C)[C@@]1(O)CC[C@@H](C)O[C@@H]1O[C@H](CO)[C@@H](O)[C@H](O)[C@H]1O | -7.68 | -2.25% | 2.94 | -11.6% | -10.8% |
| COc1cc(OC)cc(-c2nc(-c3ccc(S(=O)(=O)N4CCC(C)CC4)cc3)no2)c1 | -2.93 | 1.07% | 0.967 | -1.56% | 0.458% |
